Source: publication PMC4336329 (PLoS ONE, 2015)
Hit rate of the full screen: of about 310,000 compounds, about 14,000 (4.5%) showed an effect of 50% or more. The effect is printed as a negative number. The list shows a part of the results.

Molecular target: human ether-à-go-go-related gene (hERG) potassium channel (human, UniProt Q12809)
Assay: primary screen, population patch clamp on CHO cells stably expressing hERG
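Also: peak tail current of the secondary pulse compared with the same well before compound.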

Sequence of human ether-à-go-go-related gene (hERG) potassium channel (Q12809 whole entry, looked up): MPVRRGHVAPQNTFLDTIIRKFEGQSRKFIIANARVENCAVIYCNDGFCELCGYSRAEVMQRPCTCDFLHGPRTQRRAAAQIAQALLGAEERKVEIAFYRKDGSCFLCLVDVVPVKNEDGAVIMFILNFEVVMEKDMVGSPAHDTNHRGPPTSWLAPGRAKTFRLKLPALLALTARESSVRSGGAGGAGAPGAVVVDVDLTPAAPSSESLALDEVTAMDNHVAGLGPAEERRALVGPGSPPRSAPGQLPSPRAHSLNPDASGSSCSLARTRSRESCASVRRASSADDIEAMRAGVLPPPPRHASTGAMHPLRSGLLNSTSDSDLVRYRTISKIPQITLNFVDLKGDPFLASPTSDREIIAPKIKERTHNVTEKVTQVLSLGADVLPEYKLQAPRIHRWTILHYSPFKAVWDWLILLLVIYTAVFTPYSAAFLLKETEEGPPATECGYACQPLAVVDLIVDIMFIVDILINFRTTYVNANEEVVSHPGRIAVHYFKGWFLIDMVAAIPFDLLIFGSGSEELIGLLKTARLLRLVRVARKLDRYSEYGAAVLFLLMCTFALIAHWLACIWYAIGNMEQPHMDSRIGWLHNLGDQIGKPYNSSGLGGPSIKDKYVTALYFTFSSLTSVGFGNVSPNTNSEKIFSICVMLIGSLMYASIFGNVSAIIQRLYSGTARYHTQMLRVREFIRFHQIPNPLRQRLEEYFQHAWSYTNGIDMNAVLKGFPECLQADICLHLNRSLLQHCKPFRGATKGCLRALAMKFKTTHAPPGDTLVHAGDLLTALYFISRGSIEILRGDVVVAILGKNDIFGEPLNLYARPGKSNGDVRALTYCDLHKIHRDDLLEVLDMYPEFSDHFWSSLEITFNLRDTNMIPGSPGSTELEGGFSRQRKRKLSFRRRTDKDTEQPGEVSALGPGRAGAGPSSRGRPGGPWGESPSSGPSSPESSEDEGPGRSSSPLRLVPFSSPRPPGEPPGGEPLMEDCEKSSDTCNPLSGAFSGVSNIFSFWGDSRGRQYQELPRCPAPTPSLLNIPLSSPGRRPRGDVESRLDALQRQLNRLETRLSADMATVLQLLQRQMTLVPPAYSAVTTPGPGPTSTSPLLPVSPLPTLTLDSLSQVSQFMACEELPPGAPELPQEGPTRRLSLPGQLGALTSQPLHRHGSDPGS

Structure (SMILES)	hERG current change (%, negative = inhibition) at 10uM [%]
Cc1nn(-c2ccccc2)c(C)c1/C=N/NC(=O)c1cc(O)cc(O)c1	12.8
CC1CCN(C(=O)c2ccc(CSc3ccc(Cl)cc3)cc2)CC1	-22.8
COc1ccc(CCN2C(=O)c3cccc4cccc(c34)C2=O)cc1OC	12.9
COc1ccc(-c2nnc(SCC(=O)NC3CCCCC3)o2)cc1OC	-9.47
O=C(CSc1nnc2ccccn12)NNC(=O)c1cccc([N+](=O)[O-])c1	-6.28
Cc1cc(Nc2ccc(Br)cc2)nc2ccccc12	15.5
O=C(c1ccc(-n2cncn2)c([N+](=O)[O-])c1)N1CCN(c2cccc(Cl)c2)CC1	-68.5
COP(=O)(OC)C(NS(=O)(=O)c1ccccc1)C(Cl)(Cl)Cl (centres unmarked)	23.8
N#C/C(C(=O)NCc1ccco1)=C1/SC=C(c2ccccc2)N1c1ccccc1	-12.2
CCC(C(=O)N1C[C@H]2C[C@@H](C1)c1cccc(=O)n1C2)c1ccccc1 (some centres unmarked)	-2.49
CCN(CC)C(=O)C1CCN(Cc2ccc(OCc3ccccc3)c(OC)c2)CC1.O=C(O)C(=O)O	-32
O=C(CN1CCN(CC(=O)Nc2cccc(F)c2)CC1)NCC1(N2CCOCC2)CCCCC1	-27
CCCCOc1ccc(CCC(=O)N/N=C/c2ccco2)cc1	-22.8
COCCNCCOCCOc1cccc(OC)c1	-0.3
CCOc1ccc(NC(=O)c2ccc(NC(=O)Cc3n[nH]c(=O)c4ccccc34)cc2)cc1	4.35
COc1ccc(C(=O)c2c[nH]c(C(=O)NCCCn3ccnc3)c2)cc1	0.775
O=C(COC(=O)c1ccco1)NCCNC(=O)COC(=O)c1ccco1	21.8
CN(Cc1cccc(F)c1)C(=O)C(c1ccccc1)c1ccccc1	16.7
Cc1cc(C)nc(SCC(=O)c2ccc(F)cc2F)n1	-1.55

Structure (SMILES)	hERG current change (%, negative = inhibition) at 10uM [%]
Cc1ccc(S(=O)(=O)N2CCOCC2)cc1NC(=O)COC(=O)c1cc[n+]([O-])cc1	15.5
O=C(NCc1ccco1)C1CC(c2ccccc2O)=NO1 (centres unmarked)	17.2
O=C(NNc1ccc(C2CCCCC2)cc1)C(O)(c1ccccc1)c1cccs1 (centres unmarked)	-10.4
O=C(COc1ccccc1Br)NC1CCCC1	-9.97
Cc1cccc(NC(=O)Cc2ccc(F)cc2)c1	-6.63
COC(=O)C1=C(C)OC(N)=C(C#N)C1c1cc(OC)ccc1OC (centres unmarked)	-10.9
Clc1ccccc1OCCN1CCCCC1	-16.2
Cc1ccc(-c2csc(N3CCN(CCCn4c(C(F)(F)F)nc5ccccc54)CC3)n2)cc1	-4.95
COc1cc(N=C2C(=O)N3CCCc4cccc2c43)cc(OC)c1	1.84
O=C(Cc1cc(=O)[nH]c(=O)[nH]1)N1CCN(C(=O)c2ccco2)CC1	14.1
O=C(Nc1cccc(S(=O)(=O)N2CCOCC2)c1)C1CC(=O)N(c2ccc3c(c2)OCCO3)C1 (centres unmarked)	8.18
O=C(Nc1ccc(N2CCN(c3ccccc3)CC2)c(F)c1)C1CC1	6.28
Cc1cc(C(=O)CCl)c(C)n1CCc1ccc(F)cc1	27.2
Cc1nc2nc(-c3cccs3)cn2nc1C	6.22
COc1ccc(C(=O)NCc2oc(-c3ccccc3)cc2C(=O)O)cc1	13.2
CC(=O)Nc1ccc(N(C(=O)c2cnccn2)C(C(=O)NC2CCCCC2)c2ccc(O)cc2)cc1 (centres unmarked)	2.71
CC(C)(C)N1CC2(c3ccccc3)CN(C(C)(C)C)CC(c3ccccc3)(C1)C2=O	-16.3
O=C(CN1C(=O)c2ccccc2C1=O)NCC1COc2ccccc2O1 (centres unmarked)	-5.03
O=C(COC(=O)Cc1ccccc1F)Nc1ccc(Cl)cn1	-20.7

Structure (SMILES)	hERG current change (%, negative = inhibition) at 10uM [%]
CCOCCCNC(=O)C(NC(=O)c1ccccc1O)c1ccc(C)cc1 (centres unmarked)	13
CC(C)N(Cc1ccccc1)C(=O)CCS(=O)(=O)c1ccc2c(c1)oc(=O)n2C	4.61
O=C(Nc1nnc(-c2ccccc2)s1)c1ccccc1O	14.8
COc1ccccc1N1N=C(c2ccc([N+](=O)[O-])cc2)CC1c1ccccc1 (centres unmarked)	14.7
Cc1ccc2oc(=O)cc(/C=C/c3ccccc3)c2c1	-16.7
N#CC1(NC(=O)COC(=O)CCN=C2NS(=O)(=O)c3ccccc32)CCCCC1	29.3
CCNC(=O)Nc1nc2ccccc2s1	7.23
Cc1ccc(S(=O)(=O)c2ccccc2)cc1S(=O)(=O)N1CCOCC1	-2.45
Nc1nonc1C(=O)N/N=C/c1ccc([N+](=O)[O-])o1	-21.4
Cc1ccc(S(=O)(=O)N(Cc2nccn2C)C(C)C)cc1.Cl	-3.22
Cc1cc(C(=O)N2CC(C)CC(C)C2)c(C)o1 (centres unmarked)	-1.07
COc1cccc(CN2CCC(Oc3ccc(C(=O)NCc4ccccn4)cc3)CC2)c1	-19.6
Cc1nn2c(NCc3cccnc3)c3c(nc2c1-c1ccccc1)CCC3	-34.2
COc1ccccc1C(=O)N/C(=C\c1cn(C)c2ccccc12)C(=O)N1CCCC1	-10.9
CCn1ncc(CN2CCN(C(=O)Nc3ccccc3C(=O)OC)CC2)c1C	-7.28
CC(=O)Nc1ccc(-c2cc(-c3ccccc3)nc(-c3ccccc3)n2)cc1	6.33
Cc1ccc(CNC(=O)/C(C#N)=C\c2ccc(N(C)C)cc2)cc1	4.62
CN(C(=S)Nc1ccc(F)cc1)C(c1ccccc1)c1ccccc1	11.1
